3 molecules from article PMC4893733 can be followed below.

By UniProt entry, the sequences of proteins in these tests, tags left out.
UniProt A0A1D8PI78: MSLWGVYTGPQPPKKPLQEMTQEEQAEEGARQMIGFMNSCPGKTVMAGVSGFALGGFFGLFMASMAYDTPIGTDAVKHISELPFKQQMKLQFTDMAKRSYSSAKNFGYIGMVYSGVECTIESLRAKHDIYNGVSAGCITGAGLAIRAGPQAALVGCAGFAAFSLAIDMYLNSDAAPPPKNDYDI

Test [1] has as its target T1, C. albicans Mia40 (C. albicans (endogenous in isolated mitochondria)) (UniProt O94030).
T1 sequence: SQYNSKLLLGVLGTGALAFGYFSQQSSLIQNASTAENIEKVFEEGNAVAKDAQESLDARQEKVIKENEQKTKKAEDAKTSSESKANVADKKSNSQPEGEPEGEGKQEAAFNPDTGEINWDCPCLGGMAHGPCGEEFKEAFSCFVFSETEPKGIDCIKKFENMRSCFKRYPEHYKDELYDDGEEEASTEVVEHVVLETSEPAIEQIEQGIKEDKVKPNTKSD
Nature of the test: Mia40-linked import intermediate on non-reducing SDS-PAGE with autoradiography; radiolabeled precursor from reticulocyte lysate incubated with mitochondria isolated from wildtype S. cerevisiae or C. albicans, 25 °C or 30 °C in import buffer; samples analysed under non-reducing conditions.

For test [2], the target named is T2, His-tagged human TIMM22 wildtype (human) (UniProt Q9Y584).
T2 sequence: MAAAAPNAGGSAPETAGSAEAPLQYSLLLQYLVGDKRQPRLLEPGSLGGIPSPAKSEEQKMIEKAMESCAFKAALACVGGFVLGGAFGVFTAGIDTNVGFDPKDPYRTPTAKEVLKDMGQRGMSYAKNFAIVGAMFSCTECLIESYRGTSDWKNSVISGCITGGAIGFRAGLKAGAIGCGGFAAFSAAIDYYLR
Nature of the test: pull-down; affinity purification via HisTIMM22 on Ni-NTA from HEK293 cells solubilised in 1% digitonin, 20 mM Tris-HCl pH 7.4, 100 mM NaCl, 20 mM imidazole, 50 mM IAA; 1 h at 4 °C; eluted with 400 mM imidazole; Western blot.

Test [3] concerns the target T3, His-tagged human TIMM22-C160S (human) (UniProt Q9Y584).
T3 sequence: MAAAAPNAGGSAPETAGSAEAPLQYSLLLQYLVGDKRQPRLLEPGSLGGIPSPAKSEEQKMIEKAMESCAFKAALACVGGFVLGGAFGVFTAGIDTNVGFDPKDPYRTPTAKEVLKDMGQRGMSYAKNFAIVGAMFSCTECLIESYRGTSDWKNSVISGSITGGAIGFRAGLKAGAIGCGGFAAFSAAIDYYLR
The description is as above.

The target in test [4] is T4, His-tagged human TIMM22-C138S (human) (UniProt Q9Y584).
T4 sequence: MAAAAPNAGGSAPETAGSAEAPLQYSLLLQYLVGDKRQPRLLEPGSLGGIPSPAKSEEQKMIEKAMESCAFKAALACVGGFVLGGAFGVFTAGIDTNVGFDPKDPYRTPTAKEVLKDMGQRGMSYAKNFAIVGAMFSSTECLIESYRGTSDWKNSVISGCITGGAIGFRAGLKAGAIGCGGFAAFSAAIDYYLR
The test is described as above.

Test [5] addresses T5, S. cerevisiae Mia40 (S. cerevisiae (endogenous in isolated mitochondria)) (UniProt P36046).
T5 sequence: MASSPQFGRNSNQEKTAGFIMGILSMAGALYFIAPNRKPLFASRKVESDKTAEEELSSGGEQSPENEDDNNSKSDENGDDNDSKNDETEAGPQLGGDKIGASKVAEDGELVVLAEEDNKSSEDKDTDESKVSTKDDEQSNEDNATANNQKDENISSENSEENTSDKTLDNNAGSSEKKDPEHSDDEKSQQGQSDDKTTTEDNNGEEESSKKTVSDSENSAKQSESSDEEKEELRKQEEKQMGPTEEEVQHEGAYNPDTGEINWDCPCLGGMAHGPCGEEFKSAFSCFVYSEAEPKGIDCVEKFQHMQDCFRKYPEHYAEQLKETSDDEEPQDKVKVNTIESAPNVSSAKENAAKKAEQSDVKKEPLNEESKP
Nature of the test: Mia40-linked import intermediate on non-reducing SDS-PAGE with autoradiography; radiolabeled precursor from reticulocyte lysate incubated with mitochondria isolated from wildtype S. cerevisiae or C. albicans, 25 °C or 30 °C in import buffer; samples analysed under non-reducing conditions.

These are yes or no findings as the source states them, for the method shown. For some assays here: In cells and extracts the contact can be indirect. Some binding calls cover weakened binding; strength is not graded here. For some assays here: Where a sequence is shown, tags or fusion partners need not be part of it.

Regarding “C. albicans Tim22, radiolabeled precursor (from UniProt A0A1D8PI78 1-184)”, in test [1], the binding result is reported as “binds”.

B1: native human TIMM22 (protein, UniProt Q9Y584 1-194)
chain: MAAAAPNAGGSAPETAGSAEAPLQYSLLLQYLVGDKRQPRLLEPGSLGGIPSPAKSEEQKMIEKAMESCAFKAALACVGGFVLGGAFGVFTAGIDTNVGFDPKDPYRTPTAKEVLKDMGQRGMSYAKNFAIVGAMFSCTECLIESYRGTSDWKNSVISGCITGGAIGFRAGLKAGAIGCGGFAAFSAAIDYYLR
For the molecule B1, the results for the binding entry in test [2], in test [3] and in test [4] were “binds”, “no binding” and “binds”, respectively.

B2: S. cerevisiae Tim9, radiolabeled precursor (protein, UniProt O74700 1-87)
chain: MDALNSKEQQEFQKVVEQKQMKDFMRLYSNLVERCFTDCVNDFTTSKLTNKEQTCIMKCSEKFLKHSERVGQRFQEQNAALGQGLGR
modifications: radiolabeled with [35S]methionine
B2: the binding entry in test [5] is reported as “binds”.
